Usually Kd stands for the equilibrium constant for the complex coming apart. The term koff denotes the first-order rate constant of dissociation. Broadly, the kon is the rate constant with which the complex forms. Usually IC50 stands for the concentration that gives 50% inhibition.

Data on 2 molecules can be found in patent US20090156421A1 (published 2009).

Test [1] concerns the target T1, Cy5-IL-13Rα1 (Cy5 labeled IL-13Rα1) (human, UniProt P78552 22-343, Cy5 label, directly labeled; site not stated).
T1 construct: extracellular domain; also called IL-13R-Cys5; Cy5-IL-13RI1
T1 sequence (looked up): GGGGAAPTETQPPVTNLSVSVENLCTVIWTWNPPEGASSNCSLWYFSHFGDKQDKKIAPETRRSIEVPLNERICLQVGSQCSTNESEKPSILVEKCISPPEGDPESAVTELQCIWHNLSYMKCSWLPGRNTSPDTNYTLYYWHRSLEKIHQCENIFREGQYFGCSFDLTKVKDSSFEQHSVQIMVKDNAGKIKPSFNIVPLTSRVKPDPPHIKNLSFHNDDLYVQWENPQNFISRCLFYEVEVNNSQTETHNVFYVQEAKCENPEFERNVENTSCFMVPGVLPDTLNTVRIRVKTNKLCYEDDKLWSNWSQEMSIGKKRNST
As to the kind of experiment: TR-FRET assay 1, direct binding: Cy5-IL-13Rα1 titrated into 10 nM Eu-IL-13. The protocol: FIGS. 5A and 5B are line graphs showing dissociation constants of Cy5-IL-13Rα1 in the absence of IL-4R (A) or in the presence of IL-4R (B) measured using TR-FRET assay 1. Increasing concentrations of Cy5-IL-13Rα1 were added to 10 nM Eu-IL-13. IL-4R was added at 500 nM. Dissociation constants were calculated from IC50 values using Equation (1). All experiments were done in duplicate and the data points were an average of two.

For test [2], the target named is T2, IL-13Rα1 monomer (IL-13Rα1 extracellular domain) (human, UniProt P78552 22-343).
T2 construct: extracellular domain; Expressed and purified as in Yang et al. 2006; also called IL-13RI1; IL-13R1
T2 sequence (looked up): T1 sequence (looked up)
Put plainly: TR-FRET assay 1, competition with Cy5-IL-13Rα1 for Eu-IL-13, no IL-4R, Kd calculated from IC50. As to the method:
(§1) FIGS. 6A-6F are a series of line graphs showing binding comparisons of IL-13, IL-13R110Q, and IL-13Rα1 in the formation of the binary and ternary complex measured using TR-FRET assay 1. FIGS. 6A and 6B are line graphs showing TR-FRET ratio formed by 10 nM each Eu-IL-13 and Cy-5-IL-13Rα1 with increasing concentrations of unlabeled (A) IL-13 or (B) IL-13R110Q to disrupt the binary complex. FIGS. 6C and 6D are line graphs showing TR-FRET ratio formed by 10 nM of Eu-labeled IL-13 and Cy-5-labeled IL-13Rα1 plus 500 nM of IL-4R and increasing concentrations of unlabeled (C) IL-13 (D) or IL-13R110Q to disrupt the ternary complex. FIGS. 6E and 6F are line graphs showing TR-FRET ratio formed by 10 nM each Eu-IL-13 and Cy5-IL-13Rα1 monitored after adding increasing concentrations of unlabeled IL-13Rα1 in the (E) absence and (F) presence of 500 nM of IL-4R. For all of FIGS. 6A-6F, dissociation constants were calculated from IC50 values using Equation (2). All experiments were done in duplicate and the data points were an average of two.

Test [3] concerns the target T2, IL-13Rα1 monomer (IL-13Rα1 …). Put plainly: SPR, IL-13Rα1 immobilised. The protocol:
IL-13Rα1 was immobilized on the surface of a research grade CM5 sensor chip, as follows. Each chip was activated using a 30 second pulse of N-ethyl-N-(2-dimethylaminopropyl)carbodiimide hydrochloride mixed with N-hydroxylsuccinimide (NHS-EDC). IL-13RI1 (10 μg/ml) in 10 mM sodium acetate pH 4.0 was then injected over the activated surfaces for one to two minutes to achieve surface densities between 200 and 1160 RU. All surfaces were subsequently deactivated by a 5-minute injection of 1 M ethanolamine-HCl prior to performing kinetic experiments.
(§2) Various concentrations of IL-13 or IL-13R110Q ranging from 0.325 nM to 40 nM, or buffer, were prepared in 8.1 mM Na2HPO4, 1.47 mM KH2PO4, pH 7.2, 137 mM NaCl, 2.7 mM KCl, 0.01% BSA, 3.4 mM EDTA and 0.005% Tween 20 (PBS-BET). Each solution of IL-13 and IL-13R110Q was then injected over the surface of the IL-13RI1 coated chip. Measurements were performed at 22° C., 30 μl per minute, and a collection rate of 10 Hz.
Kinetic rates were determined using the 1:1 model for the IL-13Rα1 sensor chip surface and the heterogeneous ligand model for the IL-13Rα1/IL-4R sensor chip surface in Biaevaluation software v4.1. Data shown are mean and standard deviation from at least 3 independent experiments.
For orientation: SPR reads the build-up and loss of mass on a sensor chip optically.

The target in test [4] is T3, IL-13Rα1 + IL-4R co-immobilised on one sensor chip surface (high affinity receptor) (human, UniProt P78552 22-343; P24394 26-232).
T3 construct: extracellular domain; The two receptors were injected separately over the same flow cell of a CM5 chip, at ratios from 1:1 to 1:10; They are not a fusion; also called IL-4R/IL-13Rα1; heterodimeric IL-13 receptor complex
T3 sequence (looked up) 1: T1 sequence (looked up)
T3 sequence (looked up) 2: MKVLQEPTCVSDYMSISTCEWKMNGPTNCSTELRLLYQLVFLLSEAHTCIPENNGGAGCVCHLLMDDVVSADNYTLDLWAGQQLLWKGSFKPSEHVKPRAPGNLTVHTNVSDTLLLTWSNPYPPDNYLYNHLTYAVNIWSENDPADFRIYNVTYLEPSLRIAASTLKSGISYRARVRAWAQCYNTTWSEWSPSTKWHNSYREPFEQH
As to the kind of experiment: SPR, IL-13Rα1 and IL-4R co-immobilised. As to the method: (§3) As shown in FIG. 1A (IL-13) and FIG. 1B (IL-13R110Q), the binding profiles of IL-13 and IL-13R110Q were dose-dependent, reached saturation, and at the higher concentrations, reached equilibrium. Briefly, the binding affinity of IL-13 and IL-13R110Q to IL-13Rα1 and IL-13RI1/IL-4R was measured in a label-free system, using a Biacore 3000 instrument. IL-13Rα1 (about 800 RU) was immobilized by direct amine linkage. Various concentrations of (FIG. 1A) IL-13 or (FIG. 1B) IL-13R110Q ranging from 0.325 nM to 40 nM were injected over the Il-13RI1 sensor chip surface. In order to measure the interaction of IL-13 with its high affinity receptor, both IL-13Rα1 (˜600 RU) and IL-4R (˜900 RU) were directly immobilized in a CM5 surface. Various concentrations of IL-13 (FIG. 1C) or IL-13R110Q (FIG. 1D) were injected over the surface. Data shown are triplicate injections of analyte. Data sets for IL-13 and IL-13R100Q fit well to a 1:1 interaction model and were characterized by similar rapid on and off rates.
(§4) A combination of IL-13Rα1 and IL-4R were co-immobilized on a research grade CM5 sensor chip that was activated as described in Example 1. […]
(§5) The ratio of IL-13Rα1 to IL-4R on the heterogeneous surface ranged from 1:1 to 1:10. Association and dissociation rates to each all IL-13Rα1 and IL-4R heterogeneous surfaces were analyzed for a broad range of concentrations of both IL-13 and IL-13R110Q. […]

The target of test [5] is T2, IL-13Rα1 monomer (IL-13Rα1 …). Put plainly: SPR, IL-13Rα1 immobilised, 1:1 model. As to the method:
as §2
(§6) Experimental data were corrected for instrumental and bulk artifacts by double referencing a control sensor chip surface and buffer injections using Scrubber software (BioLogic Software v1.1 g) (19). The transformed data were globally fit to 1:1 binding models for experiments with the IL-13Rα1 sensor chip surface or the heterologous ligand binding model for experiments with the IL-13Rα1/IL-4R sensor chip surface using BiaEvaluation v4.1.

The target in test [6] is T3, IL-13Rα1 + IL-4R co-immobilised on one …. Put plainly: SPR, IL-13Rα1 and IL-4R co-immobilised, against IL-13Rα1 alone. As to the method: as §3, §4, §5
Test [7] has as its target T1, Cy5-IL-13Rα1 (Cy5 labeled IL-13Rα1). As to the kind of experiment: TR-FRET assay 1, competition with 10 nM Eu-IL-13 for 10 nM Cy5-IL-13Rα1. As to the method:
(§7) All TR-FRET experiments were performed on a 384-well black plate (Corning Costar, Acton, Mass.) in 20 μL final volume of PBS plus 0.1% BSA. For example, excitation and emission conditions for TR-FRET assay 1 and 2 were 345 nm and 665 nm, respectively. All TR-FRET measurements were taken using an Envision plate reader (Perkin Elmer) using the TR-FRET mode.
(§8) Assays were performed as described in Example 5. Competition experiments were performed by adding various concentrations of unlabeled IL-13, IL-13R110Q, or IL-13Rα1 to the Eu-IL-13 (10 nM)/Cy5-IL-13Rα1 (10 nM) binary complex with or without IL-4R (500 nM).
The decrease in TR-FRET signal was dose-dependent and reached background levels at the highest concentrations for each IL-13 and the R110Q variant.
Background: TR-FRET usually uses a lanthanide donor and a delayed reading to cut background.

The target in test [8] is T4, Cy5-IL-13Rα1 plus IL-4R (500 nM) in solution (human, UniProt P78552 22-343; P24394 26-232, Cy5 label; site not stated).
T4 construct: extracellular domain; It is not a fusion; also called IL-4R/Cy5-IL-13Rα1
T4 sequence (looked up) 1: T1 sequence (looked up)
T4 sequence (looked up) 2: T3 sequence (looked up) 2
As to the kind of experiment: TR-FRET assay 1, competition with 10 nM Eu-IL-13, 10 nM Cy5-IL-13Rα1, 500 nM IL-4R. The protocol:
as §7, §8

Test [9] has as its target T1, Cy5-IL-13Rα1 (Cy5 labeled IL-13Rα1). Put plainly: TR-FRET assay 1, competition with Eu-IL-13 for Cy5-IL-13Rα1, Kd calculated from IC50. The protocol: as §1
Test [10] addresses T4, Cy5-IL-13Rα1 plus IL-4R (500 nM) in …. As to the kind of experiment: TR-FRET assay 1, competition with Eu-IL-13, with 500 nM IL-4R, Kd calculated from IC50. As to the method:
as §1

Test [11] addresses T3, IL-13Rα1 + IL-4R co-immobilised on one …. Put plainly: SPR, IL-13Rα1 and IL-4R co-immobilised, heterogeneous ligand model, component 2 (high affinity).
From the text: as §6
(§9) A combination of IL-13Rα1 and IL-4R were co-immobilized on a research grade CM5 sensor chip that was activated as described in Example 1. IL-13Rα1 and IL-4R were then injected separately over the same flow cell for 1-2 minutes, or until surface densities between 200 to 2200 RU were obtained for each receptor. As described above, all surfaces were deactivated by a 5-minute injection of 1 M ethanolamine-HCl prior to performing kinetic experiments.

Test [12] shares this target. Put plainly: SPR, IL-13Rα1 and IL-4R co-immobilised, heterogeneous ligand model, component 1 (lower affinity).
From the text: as §6, §9

Test [13] shares this target. Put plainly: SPR, IL-13Rα1 and IL-4R co-immobilised, heterogeneous ligand model, component 2 (high affinity); column head misprinted 'Kd 2 × 10^6'.
From the text: as §6, §9

B1: Eu-IL-13 (europium chelate labeled IL-13) (ligand)
chain: not shown
modifications: europium chelate (Eu) label, directly labeled; site not stated
notes: also called Eu-labeled IL-13
As to B1, the results for the Kd in test [1] and in test [2] were 6 nM and 4.3 nM, respectively.

B2: Human recombinant IL-13 (ligand)
chain: not shown
notes: also called interleukin-13; unlabeled IL-13
Regarding B2, the “t½ (decay of binding)” value in test [3] was around 0.833 min. In addition, the t½ of dissociation in test [4] was around 3.83 min. Also, the Kd in test [5] is 4.88 nM; in test [9], 5.7 nM; in test [10], 0.3 nM; in test [11], 0.23 nM. Also, the results for the koff in [5], in [11] and in [12] were 0.014 s⁻¹, 0.003 s⁻¹ and 0.028 s⁻¹, respectively. The kon in test [5] turned out to be 2.87e+06 M⁻¹ s⁻¹; in [12], 3.79e+06 M⁻¹ s⁻¹; in test [13], 1.38e+07 M⁻¹ s⁻¹. The “fold lower Kd than to IL-13Rα1 alone” value in test [6] turned out to be 22 fold. Also, the concentration for half-maximal inhibition (IC50) in test [7] amounted to 24 nM; in test [8], 12 nM.
